# Assay results from PubChem BioAssay AID2147 (National Center for Advancing Translational Sciences (NCATS), 2009).
# Out of some 230,000 compounds screened, about 3,600 (1.6%) were called active. The inconclusive results got no clear call from the source; some entries with a clear call stand among them for comparison. Calls come from the whole dose curve; as a rule, active = well fitted inhibition curve with a large enough effect (not every such curve was filed as active); inconclusive = small, poorly fitted or top-dose-only effect, or another doubt; inactive = no such curve, though single readings can be large or run the other way. Potencies beside an inconclusive call are fits to weak or partial responses and may not hold up.
# Molecular target: Lysine-specific demethylase 4E (Homo sapiens) (UniProt B2RXH2)
# Assay: qHTS Assay for Inhibitors of Human Jumonji Domain Containing 2E (JMJD2E)
# Details: JMJD2E catalytic domain, FDH-coupled NADH fluorescence (FDH is formaldehyde dehydrogenase); series mostly up to 57.1 µM
# Note: nearly all actives have a fitted effect of over 50% in size.
# Potency is the fitted concentration of half-maximal effect; tags give direction and shape of the fitted curve.
# Chain of UniProt B2RXH2 (B2RXH2 whole entry, looked up, the tested form may be a part): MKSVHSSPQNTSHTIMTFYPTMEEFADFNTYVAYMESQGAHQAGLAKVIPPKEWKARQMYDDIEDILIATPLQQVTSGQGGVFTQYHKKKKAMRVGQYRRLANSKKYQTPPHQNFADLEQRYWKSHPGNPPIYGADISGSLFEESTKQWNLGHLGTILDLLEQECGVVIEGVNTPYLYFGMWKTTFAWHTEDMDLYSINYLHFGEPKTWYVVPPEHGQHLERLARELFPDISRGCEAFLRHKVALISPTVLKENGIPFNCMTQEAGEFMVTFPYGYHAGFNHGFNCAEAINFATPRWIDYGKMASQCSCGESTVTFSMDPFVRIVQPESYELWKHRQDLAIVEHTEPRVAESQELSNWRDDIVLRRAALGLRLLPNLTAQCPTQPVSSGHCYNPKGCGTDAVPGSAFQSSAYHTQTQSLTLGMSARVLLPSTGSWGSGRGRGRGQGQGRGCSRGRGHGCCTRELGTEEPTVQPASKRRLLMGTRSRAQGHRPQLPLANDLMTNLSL
row,Structure (SMILES),Potency
1,CC(C)Cc1cc(C(=O)O)n[nH]1,inactive
2,COc1ccc(NC(=O)c2ccc(-c3ccccc3C(F)(F)F)o2)cc1,inactive
3,CSCCNC(=O)Nc1c(-c2c(Cl)cccc2Cl)noc1C,inactive
4,N#CC1=C(N)NC(SCC(=O)c2ccccc2)=C(C#N)C12CCCC2,inactive
5,Cc1cc(C)c2nc(-c3cccnc3)cc(C(=O)NC(C)c3cnn(C)c3C)c2c1 (configuration not stated),"inconclusive: 15.8 µM [inhibitor, partial curve]"
6,CC(C)(C)C(=O)c1cnc(Nc2ccccc2)s1,"inconclusive: 39.8 µM [inhibitor, single point]"
7,CCOC(=O)CC(=O)CSc1ccc2nnc(-c3ccccc3)n2n1,"inconclusive: 28.2 µM [inhibitor, single point]"
8,O=C(Nc1cc(S(=O)(=O)N2CCOCC2)ccc1N1CCOCC1)c1cc2c(s1)CCC2,"inconclusive: 39.8 µM [inhibitor, single point]"
9,CCCC1CC(C)(C(=O)CSc2n[nH]c(-c3ccccc3)n2)OC1=O (configuration not stated),inactive
10,Cc1ccc(-c2nc(CS(=O)(=O)CC(=O)N3CC(C)CC(C)C3)c(C)o2)cc1 (configuration not stated),"inconclusive: 22.4 µM [inhibitor, partial curve]"
11,N#C/C(=C\c1c[nH]c2ccccc12)C(=O)c1ccc(O)c(O)c1,active: 2.24 µM
12,O=C(NCc1ccccc1)c1ccc2nc(-c3ccco3)c(-c3ccco3)nc2c1,"inconclusive: 28.2 µM [inhibitor, partial curve]"
13,CC(C)c1nnc(NC(=O)CS(=O)(=O)Cc2ccccc2)s1,inactive
14,N=c1c(C(=O)NCc2ccc(F)cc2)cc2c(=O)n3ccccc3nc2n1Cc1cccnc1,"inconclusive: 12.6 µM [inhibitor, partial curve]"
15,C=CCn1c(SCCC(=O)O)nnc1-c1cccs1,"inconclusive: 31.6 µM [inhibitor, single point]"
16,CC1CCc2c(sc(NC(=O)COC(=O)c3ccccc3NCc3ccco3)c2C#N)C1 (configuration not stated),"inconclusive: 1 µM [inhibitor, full curve]"
17,NC(=O)c1nsc(C(=O)N(CCc2ccccc2)C(C(=O)NC2CCCC2)c2ccco2)c1N (configuration not stated),"inconclusive: 28.2 µM [inhibitor, single point]"
18,CCc1cccc(CC)c1NC(=O)c1cccc(N)c1,"inconclusive: 28.2 µM [inhibitor, single point]"
19,Cc1ccc2nc(C)c(C(=O)N/N=C/c3cccs3)n2c1,"inconclusive: 39.8 µM [inhibitor, single point]"
20,CCNc1nnc(-c2ccc(C)cc2)o1,"inconclusive: 35.5 µM [inhibitor, single point]"
21,O=C(NCc1ccccc1)Nc1cccn(Cc2cccc(F)c2)c1=O,"inconclusive: 28.2 µM [inhibitor, partial curve]"
22,COc1ccc(-c2cn3cccnc3n2)cc1,"inconclusive: 14.1 µM [inhibitor, partial curve]"
23,COc1ccc(N2C(=O)c3ccccc3NC23CCCCC3)cc1,"inconclusive: 31.6 µM [inhibitor, partial curve]"
24,O=C(CCc1ccccc1)NCC(=O)N/N=C/c1ccc2c(c1)OCO2,inactive

row,Structure (SMILES),Potency
1,O=C(Nc1nc(-c2ccccc2)c(-c2ccccc2)s1)c1ccc(S(=O)(=O)N2CCCC2)cc1,inactive
2,CCOC(=O)c1c(NC(=O)CCCC(=O)O)sc2c1CCC2,"inconclusive: 35.5 µM [inhibitor, single point]"
3,C=CCn1c(SCc2ccc(C(=O)Nc3ccccc3)cc2)nnc1-c1ccccc1,"inconclusive: 39.8 µM [inhibitor, single point]"
4,CCOc1ccc2[nH]c(=O)c(CN(Cc3nnnn3Cc3ccccc3)CC3CCCO3)cc2c1 (configuration not stated),"inconclusive: 28.2 µM [inhibitor, partial curve]"
5,CNC(=O)c1ccc(-n2nc(C)cc2-c2ccccc2)cc1,inactive
6,O=C(CC1C(=O)NCCN1Cc1ccccc1C(F)(F)F)NCCc1ccccn1 (configuration not stated),"inconclusive: 25.1 µM [inhibitor, partial curve]"
7,CC(C)CNC(=O)c1ccccc1SCC(=O)NC12CC3CC(CC(C3)C1)C2,inactive
8,Cc1c(NC(=O)c2ccccc2N)cccc1C(=O)O,"inconclusive: 31.6 µM [inhibitor, single point]"
9,O=C(NC1CCCCC1)c1cnn2c(C(F)(F)F)cc(-c3ccco3)nc12,"inconclusive: 35.5 µM [inhibitor, single point]"
10,S=C(Nc1ccc(Cl)cc1)c1nc2ccccc2[nH]1,"inconclusive: 39.8 µM [inhibitor, single point]"
11,Cc1ccc(/C=C/C(=O)O)cc1S(=O)(=O)Nc1ccccc1C(=O)O,"inconclusive: 39.8 µM [inhibitor, single point]"
12,Cc1nc2cc(NCc3cccs3)ccc2n1C,"inconclusive: 28.2 µM [inhibitor, single point]"
13,Cc1ccccc1NC(=S)NCCC(c1ccccc1)c1ccccc1,inactive
14,Cc1c(C(C)(C(=O)O)c2c(C)n(C)c3ccccc23)c2ccccc2n1C,"inconclusive: 35.5 µM [inhibitor, single point]"
15,CCCCCCn1nc(C(=O)OCC(=O)NC2CCS(=O)(=O)C2)c2ccccc2c1=O (configuration not stated),inactive
16,COc1ccccc1NC(=O)C(=O)N/N=C(\C)CC(=O)Nc1ccccn1,inactive
17,O=C(O)c1cc2c(s1)-c1ccccc1OC2,"inconclusive: 35.5 µM [inhibitor, partial curve]"
18,CCOC(=O)C1=C(CS(=O)(=O)c2ccccc2)NC(=O)NC1c1ccc(OC)c(OC)c1 (configuration not stated),inactive
19,CCOc1cc(N2CCOCC2)c(OCC)cc1NC(=O)CN1CCCC1,active: 25.1 µM
20,O=C1NC(c2ccccc2)=C(c2ccc3ccccc3n2)C(c2ccc(F)cc2)N1 (configuration not stated),"inconclusive: 39.8 µM [inhibitor, single point]"
21,CC(C)CC(=O)O/N=C1\C(=O)N(Cc2ccc(Cl)cc2)c2ccc([N+](=O)[O-])cc21,inactive
22,COCCn1c(SCC(=O)N2CCc3ccccc32)nc2c(c1=O)SC(C)C2 (configuration not stated),inactive
23,CCOC(=O)c1ccc(-n2c(CCC(=O)O)ccc2-c2cccs2)cc1,"inconclusive: 22.4 µM [inhibitor, single point]"
